Measured values from patent US20230203098A1, “HUMAN TRANSFERRIN RECEPTOR BINDING PEPTIDE” (priority 2020, published 2023).
At least one peptide structure holds a part that was inferred or is arguable (an end, a ring closure or a residue). For at least one compound, name, drawing or mass did not settle the structure. Where a SMILES comes first, the peptide text is derived from it. Bridges are numbered along the chain shown (N, C = ends). [ ]: non-standard residue; d: D form. Trp(1-CH2COOH) = N[C@@H](Cc1cn(CC(=O)O)c2ccccc12)C(=O)O; NMeY = CN[C@@H](Cc1ccc(O)cc1)C(=O)O; NMeF = CN[C@@H](Cc1ccccc1)C(=O)O; Aib = CC(C)(N)C(=O)O

Target: transferrin receptor (hTfR) (Homo sapiens, UniProt P02786)
Sequence (P02786 whole entry): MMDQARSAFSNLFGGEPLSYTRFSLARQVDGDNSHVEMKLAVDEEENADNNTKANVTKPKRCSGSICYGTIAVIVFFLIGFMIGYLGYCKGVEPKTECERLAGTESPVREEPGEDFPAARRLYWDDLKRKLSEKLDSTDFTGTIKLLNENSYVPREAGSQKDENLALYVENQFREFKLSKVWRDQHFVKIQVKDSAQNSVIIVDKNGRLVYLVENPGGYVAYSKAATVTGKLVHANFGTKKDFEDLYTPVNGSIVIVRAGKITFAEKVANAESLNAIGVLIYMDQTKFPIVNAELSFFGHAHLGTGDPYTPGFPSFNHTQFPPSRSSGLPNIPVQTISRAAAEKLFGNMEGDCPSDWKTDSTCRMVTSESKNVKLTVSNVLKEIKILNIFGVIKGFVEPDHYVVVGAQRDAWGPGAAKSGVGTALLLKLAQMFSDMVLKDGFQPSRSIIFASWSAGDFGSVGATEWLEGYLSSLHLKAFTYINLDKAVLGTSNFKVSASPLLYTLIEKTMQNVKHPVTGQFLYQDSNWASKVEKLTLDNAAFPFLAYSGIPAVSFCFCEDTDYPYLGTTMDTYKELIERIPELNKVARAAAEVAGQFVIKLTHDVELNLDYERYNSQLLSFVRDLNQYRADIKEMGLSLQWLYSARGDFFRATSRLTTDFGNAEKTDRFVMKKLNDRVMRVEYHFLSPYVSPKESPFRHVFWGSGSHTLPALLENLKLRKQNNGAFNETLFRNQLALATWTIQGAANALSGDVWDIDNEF
Test: Intermolecular interaction evaluation test between transferrin receptor (hTfR) and peptide by surface plasmon resonance (SPR)
Assay type: binding
Conditions: SPR; for Kd: hTfR, class symbols A-D, read-out: KD (column without head, continuation of the table series); for hTfR binding ability: result in words
Method in brief: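 hTfR captured on Ni-NTA chip then amine-coupled; peptides run single-cycle kinetics at 5–100 nM in 10 mM HEPES pH 8.0, 150 mM NaCl, 0.05% Tween 20, 0.1% BSA, 1.0% DMSO. KD from least-squares curve fitting of sensorgrams.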

**Q.** For `CC[C@H](C)[C@@H]1NC(=O)[C@H](Cc2ccc(O)cc2)NC(=O)[C@H](Cc2ccc(O)cc2)NC(=O)[C@H](CC(N)=O)NC(=O)[C@H](Cc2cn(CC(=O)O)c3ccccc23)NC(=O)[C@H](C(C)C)NC(=O)[C@H](Cc2ccccc2)N(C)C(=O)[C@H](C(C)C)NC(=O)[C@H](C)NC(=O)CSC[C@@H](C(N)=O)NC(=O)[C@H](Cc2ccc(O)cc2)N(C)C(=O)[C@H](Cc2ccc(O)cc2)NC(=O)[C@H](CCCNC(=N)N)NC(=O)[C@H](CCCCN)NC(=O)[C@H]([C@@H](C)CC)NC1=O` [compound 515], which Kd is on record?
**A.** Its Kd is 1 to 100 nM.

**Q.** How did the Kd turn out when `CC[C@H](C)[C@@H]1NC(=O)[C@H](Cc2ccc(O)cc2)NC(=O)[C@H](Cc2ccc(O)cc2)NC(=O)[C@H](CC(N)=O)NC(=O)[C@H](Cc2cn(CC(=O)O)c3ccccc23)NC(=O)[C@H](C(C)C)NC(=O)[C@H](Cc2ccccc2)N(C)C(=O)[C@H](C(C)C)NC(=O)[C@H](C)NC(=O)CSC[C@@H](C(N)=O)NC(=O)[C@H](Cc2ccc(O)cc2)N(C)C(=O)[C@H](Cc2ccc(O)cc2)NC(=O)[C@H](CCCNC(=N)N)NC(=O)[C@H](CCCNC(=N)N)NC(=O)[C@H]([C@@H](C)CC)NC1=O` [compound 516] was run?
**A.** The Kd was 1 to 100 nM.

**Q.** `CC[C@H](C)[C@@H]1NC(=O)[C@H](Cc2ccc(O)cc2)NC(=O)[C@H](Cc2ccc(O)cc2)NC(=O)[C@H](CC(N)=O)NC(=O)[C@H](Cc2cn(CC(=O)O)c3ccccc23)NC(=O)[C@H](C(C)C)NC(=O)[C@H](Cc2ccccc2)N(C)C(=O)[C@H](C(C)C)NC(=O)[C@H](C)NC(=O)CSC[C@@H](C(N)=O)NC(=O)[C@H](Cc2ccc(O)cc2)N(C)C(=O)[C@H](Cc2ccc(O)cc2)NC(=O)[C@@H](CCCNC(=N)N)NC(=O)[C@H](CCCNC(=N)N)NC(=O)[C@H]([C@@H](C)CC)NC1=O` [compound 517] was tested. Which Kd did it give?
**A.** Its Kd is 1 to 100 nM.

**Q.** With `CC[C@H](C)[C@@H]1NC(=O)[C@H](Cc2ccc(OC)cc2)NC(=O)[C@H](Cc2ccc(O)cc2)NC(=O)[C@H](CC(N)=O)NC(=O)[C@H](Cc2cn(CC(=O)O)c3ccccc23)NC(=O)[C@H](C(C)C)NC(=O)[C@H](Cc2cccc(Cl)c2)N(C)C(=O)[C@H](C(C)C)NC(=O)[C@H](C)NC(=O)CSC[C@@H](C(=O)N[C@H](CCC(=O)O)C(N)=O)NC(=O)[C@H](Cc2ccc(O)cc2)N(C)C(=O)[C@H](Cc2ccccc2)NC(=O)[C@H](CCCNC(=N)N)NC(=O)C(C)(C)NC(=O)[C@H](CCC(=O)O)NC1=O` [compound 518] as the molecule, how does the Kd read?
**A.** Its Kd is 1 to 100 nM.

**Q.** For `CC[C@H](C)[C@@H]1NC(=O)[C@H](Cc2ccc(O)cc2)NC(=O)[C@H](Cc2ccc(O)cc2)NC(=O)[C@H](CC(N)=O)NC(=O)[C@H](Cc2cn(CC(=O)O)c3ccccc23)NC(=O)[C@H](C(C)C)NC(=O)[C@H](Cc2ccccc2)N(C)C(=O)[C@H](C(C)C)NC(=O)[C@H](C)NC(=O)CSC[C@@H](C(=O)N[C@H](CCC(=O)O)C(N)=O)NC(=O)[C@H](Cc2ccc(O)cc2)N(C)C(=O)[C@H](Cc2ccc(O)cc2)NC(=O)[C@H](CCCNC(=N)N)NC(=O)[C@H](CCCCN)NC(=O)[C@H](CCC(=O)O)NC1=O` [compound 519], which Kd is on record?
**A.** Its Kd is 100 to 1000 nM.

**Q.** How did the Kd turn out when `CC[C@H](C)[C@@H]1NC(=O)[C@H](Cc2ccc(O)cc2)NC(=O)[C@H](Cc2ccc(O)cc2)NC(=O)[C@H](CC(N)=O)NC(=O)[C@H](Cc2cn(CC(=O)O)c3ccccc23)NC(=O)[C@H](C(C)C)NC(=O)[C@H](Cc2ccccc2)N(C)C(=O)[C@H](C(C)C)NC(=O)[C@H](C)NC(=O)CSC[C@@H](C(=O)N[C@H](CCC(=O)O)C(N)=O)NC(=O)[C@H](Cc2ccc(O)cc2)N(C)C(=O)[C@H](Cc2ccc(O)cc2)NC(=O)[C@H](CCCNC(=N)N)NC(=O)C(C)(C)NC(=O)[C@H](CCC(=O)O)NC1=O` [compound 520] ({CH2CO}-AV[NMeF]V[Trp(1-CH2COOH)]NYYIE[Aib]RY[NMeY]C[dE]-NH2; thioether N-15) was run?
**A.** Its Kd is 100 to 1000 nM.

**Q.** With `CC[C@H](C)[C@@H]1NC(=O)[C@H](Cc2ccc(O)cc2)NC(=O)[C@H](Cc2ccc(O)cc2)NC(=O)[C@H](CC(N)=O)NC(=O)[C@H](Cc2c[nH]c3ccccc23)NC(=O)[C@H](C(C)C)NC(=O)[C@H](Cc2ccccc2)NC(=O)[C@H](C(C)C)NC(=O)[C@H](C)NC(=O)CSC[C@@H](C(N)=O)NC(=O)[C@H](Cc2ccc(O)cc2)N(C)C(=O)[C@H](Cc2ccc(O)cc2)NC(=O)[C@H](CCCNC(=N)N)NC(=O)[C@H](CCCNC(=N)N)NC(=O)[C@H]([C@@H](C)CC)NC1=O` [hTfR No. 894] as the molecule, how does the hTfR binding ability read?
**A.** Its hTfR binding ability is “significant hTfR binding ability”.

**Q.** What about the hTfR binding ability (listed as hTfR no. 894) of the same molecule?
**A.** Its hTfR binding ability is “had the hTfR binding ability”.
